Experimental data from the supplement of paper PMC10126150.
Values marked as one replicate rest on one cluster of the flow cell; about a third of the high ones do not repeat.

System: ATP
Assay: switch fluorescence ratio, 500 uM ATP over buffer (Cy3 cluster intensity, sum of 5 cycles each) (fold (ratio)); higher = stronger signal-on switching upon ATP binding; sequences stand for … in TCGTCGGCAGCGTCAGATGTGTATAAGAGACAGTTTTTTTTTTTTTTTTTTTTTTTTT…TC
Details: aptamer strand: ATP DNA aptamer (quencher-CACCTGGGGGAGTATTGCGGAGGAAGG + anchor), 100 nM annealed; ATP concentration: 500 uM; one replicate
Summary of the method: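 Between each of five buffer/ATP cycles, the flow-cell was stripped with NaOH and re-annealed. Each cycle imaged Cy3-labelled switching-strand clusters, annealed to 100 nM quencher-labelled ATP aptamer on a modified Illumina MiSeq flow-cell, first in selection buffer and then after 15 min with 500 uM ATP at 22 °C. The fluorescence ratio is summed target-cycle over summed buffer-cycle Cy3 intensity per cluster, averaged per switch-domain sequence, with clusters outside 100-1000 RFU excluded.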
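Note: ATP exposure 15 min at 22 °C before imaging.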

Row | Sequence | switch fluorescence ratio
1 | ATAGGGTCAG | 1
2 | TACCGGCAAT | 1.88
3 | ATAGATGTAG | 1.03
4 | ATTATGAAGC | 1.01
5 | GGCTGTTTCC | 0.954
6 | TCGGAGCTG | 1.15
7 | GCGCCACGCA | 0.993
8 | TGTGACGCGC | 1.27
9 | TAGTTTCAAC | 1.04
10 | CTCGCATGTA | 1.21
11 | CTTGAATGTT | 1.03
12 | AGAAGGAAAT | 1.01
13 | CATGAATTA | 0.991
14 | CAAATCGGAG | 0.972
15 | ATAAATCTCA | 1.02
16 | TTTCCACCGC | 1.41
17 | ACGATAAATT | 1.09
18 | GTTTCAATAA | 1.01
19 | AGGGATCTAA | 1.02
20 | ACCCCGGGG | 0.994
21 | AAGAACGACG | 1.03
22 | AGAGGTTCGC | 0.97
23 | GGAAACTGAG | 1.12

Row | Sequence | switch fluorescence ratio
24 | CTGGAGCCTG | 1.02
25 | AAGCCGGGTA | 1.01
26 | AGACAATGTG | 1.05
27 | GGGTCCGAGG | 1.01
28 | AATTGCTACT | 0.972
29 | TCCACTTAAT | 1.05
30 | TCAAGTGGCG | 1.04
31 | CACCTTCTC | 2.15
32 | AGTCCTCTGG | 1.08
33 | CACGGGGAG | 1.07
34 | CGGGAAACCG | 0.978
35 | CACCGTCTTT | 0.991
36 | ATTAAAGCTT | 1
37 | GATTCGTCTG | 0.996
38 | GTTATTCTTT | 0.987
39 | CTCTCGGGGA | 1.06
40 | GGTCGGACCG | 1.01
41 | TTAGGAAACT | 1.03
42 | CGTCGAA | 1.04
43 | TCGGGAAACC | 1.04
44 | CGGGCTCTAT | 0.993
45 | TGGTTAGTCT | 0.965
46 | GCAATCT | 1.47

Row | Sequence | switch fluorescence ratio
47 | ATCAATGGTA | 0.961
48 | AAATTCCATG | 1.01
49 | CGTGTACAGG | 0.971
50 | GACCACAAAT | 1.05
51 | CCAACAGTGT | 1.18
52 | CCCCGTTTTT | 1.17
53 | CTTAGTTTGA | 0.996
54 | CTTGTAATGG | 1.1
55 | TGTTATGTTC | 1.01
56 | CACGGCGTGC | 1.02
57 | ACTGTGCAAC | 1.2
58 | CGGGGGGGT | 0.995
59 | CCATGCTGGG | 1.03
60 | AAACACTCCG | 1.2
61 | CGACGGGTGG | 1
62 | AACAATTATG | 1.01
63 | AGGGGGTACC | 1.02
64 | AGATGACCGC | 1.1
65 | TGGTCAATGG | 1.08
66 | GCCATTAATA | 0.975
67 | ATCCTAAGCT | 1.05
68 | GGGGGCCTAT | 1.02
69 | AGGAGAGTGT | 0.965

Row | Sequence | switch fluorescence ratio
70 | TGTGATTATC | 0.993
71 | CCGGATCT | 1.04
72 | AACTACAAGC | 1.02
73 | CGTCCGGGTG | 2.15
74 | ATTAATGTT | 0.996
75 | CTGTCAGGCG | 0.981
76 | CTATTTCAGT | 1.04
77 | CGACTCCCGA | 1.78
78 | CTGCTCACCG | 1.05
79 | AGAAAGGAGG | 0.981
80 | AACGCTAGGA | 1.08
81 | AAGCCTGAGA | 1.01
82 | ACTGGGTGGG | 1.07
83 | CGATGCAGGT | 1.08
84 | TCTCGTGCTG | 0.988
85 | AGGGTGCATG | 1.01
86 | TTCTTTTCGC | 1.53
87 | TTACAATTTA | 1.02
88 | CTTGTCTCAG | 0.986
89 | CGAAGCCTTA | 1.09
90 | ATCATTGGGG | 0.978
91 | AGCCTAAGAC | 1.2
92 | ACACGGCCCG | 1.05

Row | Sequence | switch fluorescence ratio
93 | CTTATAAGGA | 1.01
94 | TACAGCGACT | 1.1
95 | TGGTGGTCAA | 1.01
96 | ACAGGGGT | 1.16
97 | CCTTGAAGGC | 1.19
98 | CGTAGAGAGT | 0.935
99 | TCTATCCGTT | 0.99
100 | GGCTGAGTGG | 0.984
101 | TTCGTTGCAG | 1
102 | AATTGGGG | 0.99
103 | AGATCCCGAT | 1.01
104 | AGAGGACGGA | 1.01
105 | CAACTTTTGT | 1.01
106 | CGTGGGAGTT | 0.969
107 | AATAGGCTTT | 1.02
108 | ATTATAGAGA | 0.998
109 | TGGTGCAGAC | 1.13
110 | GGAGCGCGA | 1.07
111 | TTGGGTGCAT | 1.12
112 | CGTCAGGAAC | 1.07
113 | TCAACCTGCG | 1.16
114 | CGTACGTAGG | 1.01
115 | TTCAGATGCT | 1.01

Row | Sequence | switch fluorescence ratio
116 | TTGCATCTTC | 1.01
117 | CAAGCAATT | 2.05
118 | ATCTACCAGT | 1.16
119 | TAAGTGCTAT | 1.03
120 | GTGTCCAATC | 1.01
121 | ACGGGACCTG | 1.08
122 | AAGGGGGATA | 0.979
123 | CCTCTAGATG | 2.8
124 | TGACGGCCCT | 1
125 | AGTAGGAACG | 0.985
126 | GCGGTTAGTT | 1.02
127 | TGTCTTTCCC | 0.996
128 | AGCTATATAG | 0.995
129 | ACATACAGAC | 1.3
130 | GATCTTTAA | 0.967
131 | TAGGCTGTCC | 1
132 | TCGTGTCGTG | 1.04
133 | TGGTGCCTCC | 1.08
134 | GTGTTTAAAT | 1.05
135 | GGGAAGCGTC | 0.95
136 | GGTTTGTGTC | 0.961
137 | ATCAGGCCTT | 0.994
138 | TGAGGGTTAC | 1.04

Row | Sequence | switch fluorescence ratio
139 | TTCGGGAGAT | 0.997
140 | TCCTCCTGTT | 1.78
141 | AGACAGTGCA | 1.03
142 | CGCGGCATAT | 1.72
143 | CGCGAGGGGG | 1.04
144 | CTATTGATGC | 1.02
145 | GACACGACGG | 1.03
146 | TGCCTACACG | 1.08
147 | GCCCAGGACC | 1.05
148 | GGCAGGATGA | 1.01
149 | ATTAGCAACG | 1.01
150 | AACTGACACT | 1.14
151 | TCGAGTGTGT | 1.02
152 | CCGGAACGGA | 0.929
153 | AAGCTAAGTA | 0.997
154 | GATTGCGGAT | 1.03
155 | TCGGAATAT | 1.16
156 | ATCTAGTCCG | 1.03
157 | TGCGACAAAC | 1.37
158 | GAAGCTTTGA | 1
